Part of at least one peptide drawing is inferred or uncertain, most often the ends.
Tests used:
Format in all cases: physicochemical
[1] = Rheometer stress sweep test of peptide compositions at selected concentrations (AR500, 40 mm plates); conditions: 37° C.; for Loss Modulus (G″) / Storage Modulus (G′): at 1 Pa of oscillation stress, 10 rad/s; for Max. Viscosity (max η′): maximum in range of measured stress; for Yield Stress: stress sweep 10 rad/s
Procedure: The present Example further describes measurement of various rheological properties of certain peptide compositions at selected concentrations using a rheometer (AR500, TA Instruments) with 40 mm plates. A peptide composition (700 μL) was placed on the rheometer plate and excess composition was gently removed by Kimwipes. Measurements were performed after 2 minutes of relaxation time at 37° C. Storage modulus, loss modulus, and viscosity (η′) were measured at 37° C. with the plates placed at a measuring geometry gap of 300 μm, and stress sweep tests were performed at 0.1 Pa˜1000 Pa of oscillation stress with angular frequency at 10 rad/s.
Results are shown in FIGS. 2-4 for RADA16 (SEQ ID NO:1), IEIK13 (SEQ ID NO:3), and KLD12 (SEQ ID NO:2).

[2] = pH adjustment with 0.1 N NaOH, pH and visual observation
Procedure: In this Example, pH levels of peptide compositions was adjusted, for example, by addition of 0.1 N NaOH to 2 mL of a 2.5% peptide composition. pH and appearance of the adjusted compositions were observed. An acidic salt was added if the pH level was higher than the desired level.
With certain compositions, when pH levels of peptide compositions were higher than 3.5 (RADA16 (SEQ ID NO:1) and KLD12 (SEQ ID NO:2)) or 3.7 (IEIK13 (SEQ ID NO:3)), the peptide compositions began phase separation (i.e. becoming cloudy). In some embodiments, provided peptide compositions have a pH within the range of about 3.0 to about 3.7 (particularly for IEIK13 (SEQ ID NO:3)), or about 3.0 to about 3.5 (particularly for RADA16 (SEQ ID NO:1) and/or KLD12 (SEQ ID NO:2)).

[3] = Visual observation of peptide compositions with selected salts (cloud point, critical ionic strength); conditions: for Observation: room temperature; for Conc. at cloud point / Ionic strength at cloud point: visual observation of solubility
Procedure: Visual observations of RADA16 (SEQ ID NO:1), KLD12 (SEQ ID NO:2), and IEIK13 (SEQ ID NO:3) compositions with selected salts (e.g. KCl, MgCl2, CaCl2) are summarized in Tables 7-9. […] Apparent stiffness of RADA16 (SEQ ID NO:1), KLD12 (SEQ ID NO:2) and IEIK13 (SEQ ID NO:3) compositions was increased with increased ionic strength.
Critical ion strengths were determined from the visual observations recorded in Tables 7-9. When the ionic strengths of peptide compositions were higher than 0.9 M (RADA16 (SEQ ID NO:1)), 0.3 M (KLD12 (SEQ ID NO:2)) or 0.03 M (IEIK13 (SEQ ID NO:3)), the peptide compositions began phase separation. 0.9 M, 0.3 M and 0.03 M may represent critical ion strengths for RADA16 (SEQ ID NO:1), KLD12 (SEQ ID NO:2) and IEIK13 (SEQ ID NO:3), respectively.

[4] = Congo Red assay of gel formation in PBS solution (pH 7.4); conditions: 0.5%, 1.0%, 1.5%, 2.0% and 2.5%
Procedure: A Congo Red assay was performed to determine gel formation of peptide compositions in a PBS (Phosphate buffered saline) solution (pH 7.4), as shown in FIG. 1. 100 μl of each gel at selected concentrations were plated on a glass slide. After 30 seconds, 500 μl of 1% Congo Red solution was added around and on top of each of the composition aliquots and then the excess Congo Red solution was wiped off prior to examination. RADA16 (SEQ ID NO:1), IEIK13 (SEQ ID NO:3), and KLD12 (SEQ ID NO:2) were plated at selected concentrations of 0.5%, 1.0%, 1.5%, 2.0% and 2.5%. Visual observation determined the success or failure of gelation at each concentration.

CC[C@H](C)[C@H](N)C(=O)N[C@@H](CCC(=O)O)C(=O)N[C@H](C(=O)N[C@@H](CCCCN)C(=O)N[C@H](C(=O)N[C@@H](CCC(=O)O)C(=O)N[C@H](C(=O)N[C@@H](CCCCN)C(=O)N[C@H](C(=O)N[C@@H](CCC(=O)O)C(=O)N[C@H](C(=O)N[C@@H](CCCCN)C(=O)N[C@H](C(=O)O)[C@@H](C)CC)[C@@H](C)CC)[C@@H](C)CC)[C@@H](C)CC)[C@@H](C)CC)[C@@H](C)CC [IEIK13, Ile-Glu-Ile-Lys-Ile-Glu-Ile-Lys-Ile-Glu-Ile-Lys-Ile]
Loss Modulus (G″) ([1]; Conc. 1%): 77 Pa
Storage Modulus (G′) ([1]; Conc. 1%): 719 Pa
Max. Viscosity (max η′) ([1]; Conc. 1%): 12.9 Pa · s
Yield Stress ([1]; Conc. 1%): 39.8 Pa
Loss Modulus (G″) ([1]; Conc. 1.5%): 94 Pa
Storage Modulus (G′) ([1]; Conc. 1.5%): 1092 Pa
Max. Viscosity (max η′) ([1]; Conc. 1.5%): 18.0 Pa · s
Yield Stress ([1]; Conc. 1.5%): 50.1 Pa
Loss Modulus (G″) ([1]; Conc. 2%): 138 Pa
Storage Modulus (G′) ([1]; Conc. 2%): 1708 Pa
Loss Modulus (G″) ([1]; Conc. 2.5%): 174 Pa
Storage Modulus (G′) ([1]; Conc. 2.5%): 2213 Pa
Max. Viscosity (max η′) ([1]; Conc. 2.5%): 40.2 Pa · s
Yield Stress ([1]; Conc. 2.5%): 100 Pa
Observation ([2]; 0.1N NaOH 0 μL/mL, Conc. 2.5%, pH 2.2 (RADA16), 1.8 (IEIK13), 2.1 (KLD12)): Clear, thick gel
Observation ([2]; 0.1N NaOH 50 μL/mL, Conc. 2.38%, pH 2.3 (RADA16), 2.1 (IEIK13), 2.4 (KLD12)): Clear, thick gel
Observation ([2]; 0.1N NaOH 100 μL/mL, Conc. 2.27%, pH 2.4 (RADA16), 2.2 (IEIK13), 2.6 (KLD12)): Clear, thick gel
Observation ([2]; 0.1N NaOH 150 μL/mL, Conc. 2.17%, pH 2.7 (RADA16), 2.7 (IEIK13), 2.9 (KLD12)): Clear, thick gel, stiffer gel
Observation ([2]; 0.1N NaOH 200 μL/mL, Conc. 2.08%, pH 2.9 (RADA16), 3.0 (IEIK13), 3.3 (KLD12)): Clear, thick gel, stiffer gel
Observation ([2]; 0.1N NaOH 250 μL/mL, Conc. 2.0%, pH 3.2 (RADA16), 3.3 (IEIK13), 4.0 (KLD12)): Clear, thick gel, stiffer gel
Observation ([2]; 0.1N NaOH 275 μL/mL, Conc. 1.96%, pH 3.4 (RADA16), 3.7 (IEIK13)): Clear, thick, stiffer gel
Observation ([2]; 0.1N NaOH 300 μL/mL, Conc. 1.92%, pH 3.6 (RADA16), 4.0 (IEIK13), 4.7 (KLD12)): Slightly cloudy, brittle gel
Observation ([2]; 0.1N NaOH 350 μL/mL, Conc. 1.85%, pH 4.5 (RADA16), 4.5 (IEIK13), 5.2 (KLD12)): Cloudy, brittle gel
Observation ([2]; 0.1N NaOH 400 μL/mL, Conc. 1.79%, pH 5.4 (IEIK13)): Cloudy, phase-separated
Peptide composition pH ([2]; 0.1N NaOH added in 2.5% composition 0 μL/mL, Conc. 2.5%): 1.8
Peptide composition pH ([2]; 0.1N NaOH added in 2.5% composition 50 μL/mL, Conc. 2.38%): 2.1
Peptide composition pH ([2]; 0.1N NaOH added in 2.5% composition 100 μL/mL, Conc. 2.27%): 2.2
Peptide composition pH ([2]; 0.1N NaOH added in 2.5% composition 150 μL/mL, Conc. 2.17%): 2.7
Peptide composition pH ([2]; 0.1N NaOH added in 2.5% composition 200 μL/mL, Conc. 2.08%): 3.0
Peptide composition pH ([2]; 0.1N NaOH added in 2.5% composition 250 μL/mL, Conc. 2.0%): 3.3
Peptide composition pH ([2]; 0.1N NaOH added in 2.5% composition 275 μL/mL, Conc. 1.96%): 3.7
Peptide composition pH ([2]; 0.1N NaOH added in 2.5% composition 300 μL/mL, Conc. 1.92%): 4.0
Peptide composition pH ([2]; 0.1N NaOH added in 2.5% composition 350 μL/mL, Conc. 1.85%): 4.5
Peptide composition pH ([2]; 0.1N NaOH added in 2.5% composition 400 μL/mL, Conc. 1.79%): 5.4
Observation ([2]; pH 7.0, NaOH volume and conc. not given): Cloudy, phase-separated
pH level at which peptide compositions began phase separation (becoming cloudy) ([2]; pH adjusted with 0.1 N NaOH): > 3.7
Observation ([3]; IEIK13 1.16%, KCl 0.045 M, ionic strength 0.045 M): Cloudy, phase-separated
Observation ([3]; IEIK13 1.2%, KCl 0.04 M, ionic strength 0.04 M): Slightly cloudy, brittle
Observation ([3]; IEIK13 1.2%, NaCl 0.04 M, ionic strength 0.04 M): Cloudy, phase-separated
Observation ([3]; IEIK13 1.24%, KCl 0.035 M, ionic strength 0.035 M): Slightly cloudy, brittle gel
Observation ([3]; IEIK13 1.24%, NaCl 0.035 M, ionic strength 0.035 M): Slightly cloudy, brittle gel
Observation ([3]; IEIK13 1.27%, KCl 0.03 M, ionic strength 0.03 M): Clear, thick, stiffer gel
Observation ([3]; IEIK13 1.27%, NaCl 0.03 M, ionic strength 0.03 M): Slightly cloudy, thick,
Observation ([3]; IEIK13 1.31%, KCl 0.025 M, ionic strength 0.025 M): Clear, thick, stiffer gel
Observation ([3]; IEIK13 1.31%, NaCl 0.025 M, ionic strength 0.025 M): Clear, thick, stiffer gel
Observation ([3]; IEIK13 1.35%, KCl 0.02 M, ionic strength 0.02 M): Clear, thick, stiffer gel
Observation ([3]; IEIK13 1.35%, NaCl 0.02 M, ionic strength 0.02 M): Clear, thick, stiffer gel
Observation ([3]; IEIK13 1.36%, CaCl2 0.0183 M, ionic strength 0.055 M): Cloudy, phase-separated
Observation ([3]; IEIK13 1.36%, MgCl2 0.0183 M, ionic strength 0.055 M): Cloudy, phase-separated
Observation ([3]; IEIK13 1.37%, CaCl2 0.0167 M, ionic strength 0.05 M): Slightly cloudy, brittle gel
Observation ([3]; IEIK13 1.37%, MgCl2 0.0167 M, ionic strength 0.05 M): Slightly cloudy, brittle gel
Observation ([3]; IEIK13 1.39%, CaCl2 0.015 M, ionic strength 0.045 M): Slightly cloudy, thick,
Observation ([3]; IEIK13 1.39%, KCl 0.015 M, ionic strength 0.015 M): Clear, thick, stiffer gel
Observation ([3]; IEIK13 1.39%, MgCl2 0.015 M, ionic strength 0.045 M): Slightly cloudy, stiffer gel
Observation ([3]; IEIK13 1.39%, NaCl 0.015 M, ionic strength 0.015 M): Clear, thick, stiffer gel
Observation ([3]; IEIK13 1.40%, CaCl2 0.0133 M, ionic strength 0.04 M): Slightly cloudy, thick,
Observation ([3]; IEIK13 1.40%, MgCl2 0.0133 M, ionic strength 0.04 M): Slightly cloudy, thick,
Observation ([3]; IEIK13 1.41%, CaCl2 0.0117 M, ionic strength 0.035 M): Clear, thick, stiffer gel
Observation ([3]; IEIK13 1.41%, MgCl2 0.0117 M, ionic strength 0.035 M): Clear, thick, stiffer gel
Observation ([3]; IEIK13 1.43%, CaCl2 0.01 M, ionic strength 0.03 M): Clear, thick, stiffer gel
Observation ([3]; IEIK13 1.43%, KCl 0.01 M, ionic strength 0.01 M): Clear, thick, stiffer gel
Observation ([3]; IEIK13 1.43%, MgCl2 0.01 M, ionic strength 0.03 M): Clear, thick, stiffer gel
Observation ([3]; IEIK13 1.43%, NaCl 0.01 M, ionic strength 0.01 M): Clear, thick, stiffer gel
Observation ([3]; IEIK13 1.44%, CaCl2 0.0083 M, ionic strength 0.025 M): Clear, thick, stiffer gel
Observation ([3]; IEIK13 1.44%, MgCl2 0.0083 M, ionic strength 0.025 M): Clear, thick, stiffer gel
Observation ([3]; IEIK13 1.45%, CaCl2 0.0067 M, ionic strength 0.02 M): Clear, thick, stiffer gel
Observation ([3]; IEIK13 1.45%, MgCl2 0.0067 M, ionic strength 0.02 M): Clear, thick, stiffer gel
Observation ([3]; IEIK13 1.46%, CaCl2 0.005 M, ionic strength 0.015 M): Clear, thick, stiffer gel
Observation ([3]; IEIK13 1.46%, KCl 0.005 M, ionic strength 0.005 M): Clear, thick, stiffer gel
Observation ([3]; IEIK13 1.46%, MgCl2 0.005 M, ionic strength 0.015 M): Clear, thick, stiffer gel
Observation ([3]; IEIK13 1.46%, NaCl 0.005 M, ionic strength 0.005 M): Clear, thick, stiffer gel
Observation ([3]; IEIK13 1.5%, CaCl2 0 M, ionic strength 0 M): Clear, thick gel
Observation ([3]; IEIK13 1.5%, KCl 0 M, ionic strength 0 M): Clear, thick gel
Observation ([3]; IEIK13 1.5%, MgCl2 0 M, ionic strength 0 M): Clear, thick gel
Observation ([3]; IEIK13 1.5%, NaCl 0 M, ionic strength 0 M): Clear, thick gel
Ionic strength range that did not noticeably change the opacity of compositions ([3]; approximately, depending on salt identities): 0.025˜0.035 M
Critical ion strength (above it compositions began phase separation) ([3]; from visual observations of Tables 7-9): 0.03 M
Critical ionic strength (when the composition becomes cloudy) ([3]; range over salts): 0.03˜0.04 M
Conc. at cloud point ([3]; salt CaCl2): 0.0133~0.015 M
Ionic strength at cloud point ([3]; salt CaCl2): 0.04~0.045 M
Conc. at cloud point ([3]; salt KCl): 0.03~0.035 M
Ionic strength at cloud point ([3]; salt KCl): 0.03~0.035 M
Conc. at cloud point ([3]; salt MgCl2): 0.0133~0.015 M
Ionic strength at cloud point ([3]; salt MgCl2): 0.04~0.045 M
Conc. at cloud point ([3]; salt NaCl): 0.025~0.03 M
Ionic strength at cloud point ([3]; salt NaCl): 0.025~0.03 M
Gel formation (success or failure of gelation) [4]: gelled at all concentrations

From US10654893B2, “Self-assembling peptide compositions” (3-D MATRIX, LTD., priority 2014, dated 2020)
